Measurements: publication PMC4336329 (PLoS ONE, 2015)
In all, about 310,000 compounds went through this assay and about 14,000 (4.5%) showed an effect of 50% or more. The effect is printed as a negative number. The list shows a part of the results.

biological target: human ether-à-go-go-related gene (hERG) potassium channel (human, UniProt Q12809); assay: primary screen, population patch clamp on CHO cells stably expressing hERG
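Also: peak tail current of the secondary pulse compared with the same well before compound.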

Sequence of human ether-à-go-go-related gene (hERG) potassium channel (Q12809 whole entry, looked up): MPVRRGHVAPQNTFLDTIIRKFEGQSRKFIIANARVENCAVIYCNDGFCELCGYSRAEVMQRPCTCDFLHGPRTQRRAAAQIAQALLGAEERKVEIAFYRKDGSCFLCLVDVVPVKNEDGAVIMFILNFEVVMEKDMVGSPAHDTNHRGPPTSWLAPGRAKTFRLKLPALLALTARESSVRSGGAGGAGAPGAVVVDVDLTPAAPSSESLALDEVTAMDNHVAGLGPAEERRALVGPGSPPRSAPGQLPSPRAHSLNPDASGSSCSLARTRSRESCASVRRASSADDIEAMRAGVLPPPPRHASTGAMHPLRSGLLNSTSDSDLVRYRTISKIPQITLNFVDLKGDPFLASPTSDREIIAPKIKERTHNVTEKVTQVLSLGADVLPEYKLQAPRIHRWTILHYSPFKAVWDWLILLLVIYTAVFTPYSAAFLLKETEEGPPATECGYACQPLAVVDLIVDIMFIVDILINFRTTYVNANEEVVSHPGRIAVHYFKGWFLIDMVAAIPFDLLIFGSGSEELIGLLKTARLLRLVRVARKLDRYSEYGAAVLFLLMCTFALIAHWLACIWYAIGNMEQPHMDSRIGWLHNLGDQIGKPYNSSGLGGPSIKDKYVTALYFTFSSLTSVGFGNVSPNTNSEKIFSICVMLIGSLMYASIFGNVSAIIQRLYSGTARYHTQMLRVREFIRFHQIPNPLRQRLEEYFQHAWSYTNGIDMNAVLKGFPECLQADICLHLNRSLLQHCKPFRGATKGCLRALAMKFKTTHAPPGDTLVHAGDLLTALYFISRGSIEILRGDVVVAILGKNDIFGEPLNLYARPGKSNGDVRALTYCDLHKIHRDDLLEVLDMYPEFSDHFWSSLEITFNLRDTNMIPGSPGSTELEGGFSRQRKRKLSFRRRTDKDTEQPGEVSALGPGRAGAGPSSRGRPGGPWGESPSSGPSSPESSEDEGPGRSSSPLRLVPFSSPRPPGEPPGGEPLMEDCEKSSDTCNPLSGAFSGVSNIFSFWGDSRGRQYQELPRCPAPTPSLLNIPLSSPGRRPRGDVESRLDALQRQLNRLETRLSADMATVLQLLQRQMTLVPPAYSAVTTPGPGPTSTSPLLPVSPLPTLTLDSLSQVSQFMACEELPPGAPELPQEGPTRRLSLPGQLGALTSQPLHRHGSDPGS

| SMILES | hERG current change (%, negative = inhibition) at 10uM [%] |
| --- | --- |
| CCCCC(O)(c1ccccc1)C(CN1CCOCC1)c1ccccc1.Cl (stereo not drawn) | -15.3 |
| Cc1ccc(C(=O)NCC(=O)OCC(=O)NC2CCCC(C)C2C)s1 (stereo not drawn) | -2.32 |
| Cl.Nc1cccc(CCc2nc3ccccc3[nH]2)c1 | -16.2 |
| Cc1c(C(=O)O)cccc1-c1ccc(C=O)o1 | 11.3 |
| CC(C)c1ccc(NC(=O)CSc2nc3ccsc3c(=O)n2Cc2ccc(C(=O)O)cc2)cc1 | 3.05 |
| O=C(Cn1cncn1)c1ccc(Cl)cc1 | 0.632 |
| CCOc1ccc(NC(=O)c2ccc(NC(=S)NC3CCCCC3)cc2)cc1 | 20.9 |
| O=C(C1CCN(C2CC(=O)N(c3ccc(F)cc3)C2=O)CC1)N1CCOCC1 (stereo not drawn) | 3.4 |
| CC(C)c1ccc(NC2CCCN(C(=O)CCN3CCCC3=O)C2)cc1 (stereo not drawn) | 9.8 |
| Cc1[nH]oc(=O)c1N=Nc1ccc2[nH]c(=O)[nH]c2c1 | 7.93 |
| CCCc1nc2c([nH]1)C(c1cccnc1)C(C#N)=C(N)O2 (stereo not drawn) | 0.373 |
| Cc1cccc(-c2nc3c(c(=O)c4ccccc4n3C)c(=O)n2-c2ccccc2)c1 | 14 |
| CCCNC(=O)Cn1cnc([N+](=O)[O-])n1 | 21.8 |
| COc1ccc2nc(C)c(C(=O)NN)cc2c1 | 28.8 |
| Cc1ccc(C)c(N2CCN(c3ccc(N4C(=O)COCC4=O)cc3[N+](=O)[O-])CC2)c1 | 12.4 |
| CN(CC(=O)Nc1ccccc1Cl)C(=O)CSc1nncs1 | -3.38 |
| CCCn1c(SCC(=O)c2ccc3c(c2)NC(=O)CO3)nc2ccccc21 | 8.76 |
| Cc1nc(C(Cl)(Cl)Cl)nc2[nH]ccc(=O)c12 | 8.4 |
| CCCCC(=O)N/N=C/c1c(O)n(CC)c(=S)n(CC)c1=O | 10.5 |
| CC1(C)NC(=O)N(Cc2cc(=O)n3ccsc3n2)C1=O | 10.8 |
| Cc1cc(NC(=O)CSc2ccc(-c3ccccc3)nn2)no1 | -7.53 |
| CCCCN1CN(S(=O)(=O)c2ccc(OC)cc2)c2nc3ccccc3nc21 | -14.5 |
| Cc1nn2c(-c3ccccc3)ccnc2c1Br | 2.5 |

| SMILES | hERG current change (%, negative = inhibition) at 10uM [%] |
| --- | --- |
| Cc1ccc(NC(=S)N2CCC(c3nc4ccccc4s3)CC2)cc1 | 0.427 |
| O=C(CN1CCSC1=O)N1CCN(S(=O)(=O)c2ccc(Cl)cc2)CC1 | -11.9 |
| CC(=O)C1C(c2ccc([N+](=O)[O-])cc2)c2c(noc2C)CC1(C)O (stereo not drawn) | 12.4 |
| CCCc1cc(=O)[nH]c(/N=C(\N)Nc2ccccc2)n1 | -4.7 |
| COc1ccc(/C=C/C(=O)NCCSCc2ccco2)cc1 | -5.19 |
| CCOc1cc(N2CCOCC2)c(OCC)cc1NC(=O)CN1C(=O)NC(C)(C2CC2)C1=O (stereo not drawn) | 26.8 |
| COc1ccc(N(CC(=O)O)S(=O)(=O)c2cccnc2)cc1 | 13.5 |
| COc1cccc(-c2c(C(=O)N/N=C(\C)c3ccc(Cl)s3)nnn2-c2nonc2N)c1 | 17 |
| Cc1ccc(NC(=O)COc2ccccc2C=O)cc1Cl | 2.05 |
| Cc1nc2sccn2c1-c1csc(NCc2ccccc2)n1 | 6.86 |
| Cc1nc(N)sc1C(=O)OCC(C)C | 15.9 |
| CC1(C)CC2(CC(c3cccs3)c3cc(Cl)c(O)cc3O2)NC(=S)N1 (stereo not drawn) | 0.54 |
| O=C(c1ccc(Cl)cc1)N1CCN(c2cccc3[nH]ccc23)CC1 | 3.68 |
| S=c1[nH]nc(-c2ccccc2)n1CC1CCCO1 (stereo not drawn) | 16 |
| O=C(Nc1nc(-c2cccs2)cs1)c1ccc(Cl)cc1 | -8.66 |
| Cc1cccc(N2C(=O)N3[C@H](c4ccc(F)cc4)[C@@H]4C(=O)N(C5CCCCC5)C(=O)[C@@H]4[C@]3(Cc3ccc(Cl)cc3)C2=O)c1 | 14.9 |
| COc1ccc(NC(=O)c2onc(C)c2Cl)cc1 | -11.3 |
| CCC1Nc2ncnc(N3CCCCC3)c2N(Cc2ccccc2)C1=O.O=C(O)C(F)(F)F (stereo not drawn) | -4.8 |
| CC(C)[C@H](NC(=O)Nc1ccc(S(N)(=O)=O)cc1)C(=O)O | 16.9 |
| Cc1cc(C)c([N+](=O)[O-])cc1-c1ccc(/C=N/c2c(-c3ccco3)nc3ccccn23)o1 | 11.2 |
| CCCSc1nc2cc(C)c(C)cc2n1CC(O)CO (stereo not drawn) | 1.68 |
| CC1CCCN(c2nc3c(c(=O)n(C)c(=O)n3C)n2CCSc2nc3ccccc3s2)C1 (stereo not drawn) | -23.9 |
| NC(=S)Nc1cnc2ccccc2c1 | 14.7 |

| SMILES | hERG current change (%, negative = inhibition) at 10uM [%] |
| --- | --- |
| CC(NC(=O)C1CCN(c2nnc(-n3cccc3)s2)CC1)C12CC3CC(CC(C3)C1)C2 (stereo not drawn) | -5.82 |
| O=C(NCCCn1ccnc1)c1ccc2c(c1)OCCO2 | 6.86 |
| CCCCCCCCCCCC(=O)NC1CCS(=O)(=O)C1 (stereo not drawn) | -3.37 |
| CCC(C(=O)NCCC1=CCCCC1)n1nc(C)c2c(C)n(-c3ccccc3)nc2c1=O (stereo not drawn) | -48.6 |
| Cn1cnnc1SC(C(=O)c1ccccc1)c1ccccc1 (stereo not drawn) | -1.57 |
| CCSc1nnc(NC(=O)c2nc(-c3ccccc3)n(-c3ccccc3)n2)s1 | -40 |
| Cc1ccc(CNC(=O)CSc2ncc(C(=O)Nc3ccccc3)c(=O)n2C)cc1 | -14.5 |
| Oc1ccccc1/C=C/c1noc(-c2ccccc2O)n1 | 29.1 |
| O=C(Nc1ccc(-n2nncc2-c2ccco2)cc1)c1cc2ccccc2oc1=O | 9.1 |
| O=C(C1CC(=O)N(C2CCCCCCC2)C1)N1CCC2(CC1)OCCO2 (stereo not drawn) | -22.8 |
| COc1cc(-c2c(NC(=O)c3ccco3)oc3c(C)cccc3c2=O)cc(OC)c1OC | 22.6 |
| c1ccc(-c2cc3c(-n4cccc4)ncnc3o2)cc1 | 0.799 |
| CCOC(=O)N1CCN(S(=O)(=O)c2ccc(OC)c(Cl)c2)CC1 | -1.37 |
| Cc1ccc(CNc2ccc([N+](=O)[O-])cc2C(N)=O)cc1 | 3.67 |
| COc1ccc(CCNC(=O)c2cc(CC(C)C)on2)cc1OC | -35.3 |
| CN(Cc1cnc2nc(N)nc(N)c2n1)c1ccc(C(=O)N[C@@H](CCC(=O)O)C(=O)O)cc1 | 14.5 |
| COc1ccc2c(c1)C(C)=CC(C)(C)N2C(=O)CSc1nnc(-c2ccc(C)cc2)o1 | 4.8 |
| COc1ccccc1CCN=C(N)NS(=O)(=O)c1ccc(F)cc1 | -7.93 |
| COc1cc(-c2cn[nH]c2N)cc(OC)c1OC | 7.12 |
| Cc1ccc(-c2nc(CS(=O)CC(=O)NCCN3CCCCC3C)c(C)o2)cc1 (stereo not drawn) | -9.54 |
| COc1ccc(NS(=O)(=O)c2cccc(C(=O)N3CCC3)c2)cc1 | 10.5 |
| CCC1(C)Cc2c(sc(NC(=S)NC(=O)c3ccccc3)c2C#N)CO1 (stereo not drawn) | 18.1 |
| CN1CCc2nc(SCc3cccc(Br)c3)c(C#N)cc2C1 | -11.7 |

| SMILES | hERG current change (%, negative = inhibition) at 10uM [%] |
| --- | --- |
| COc1ccccc1/C=C/C(=O)OCC(=O)c1c[nH]c2ccccc12 | 3.53 |
| O=C(NCc1cccnc1)c1ccccc1NS(=O)(=O)c1ccc(F)cc1F | 9.6 |
| N#Cc1ccc(OCc2nnc(SCC(=O)c3ccccc3)n2-c2ccccc2)cc1 | -40.8 |
| C/C(=N\NC(=O)c1c(Br)c(C)nn1C)c1cccc(NC(=O)c2ccccc2C)c1 | -4.71 |
| S=c1[nH]nc(-c2ccco2)n1/N=C/C=C/c1ccco1 | 13.7 |
| CCNS(=O)(=O)c1ccc(NC(=O)Cn2cc([N+](=O)[O-])cn2)cc1 | 13.1 |
| COc1ccc(CN2C(=O)CS/C2=N/N=C/c2cccs2)cc1 | 14.2 |
| COc1ccc(Br)cc1CNC(=O)C1CCCN(S(C)(=O)=O)C1 (stereo not drawn) | -12.3 |
| O=S(=O)(c1cccc(-c2cn3ccccc3n2)c1)N1CCCC1 | -14.7 |
| CN(C)C1=NC(=O)/C(=C\c2ccccc2)S1 | 2.8 |
| Cc1nn(C)cc1/C=N/n1nnnc1N | -6.21 |
| COC(=O)c1ccc(CSc2nc3ccccc3c(=O)n2C)o1 | 4.09 |
| N#Cc1nc(-c2cccc3ccccc23)oc1NCCN1CCOCC1 | -20.9 |
| O=C(C[n+]1ccccc1)c1ccc(Cl)cc1.[I-] | 10 |
| O=C(N/N=C/c1ccccc1C(=O)O)c1cccc(S(=O)(=O)N2CCCCC2)c1 | 9.04 |
| CC1(C)CC(NC(=O)C(c2ccccc2)c2ccccc2)CC(C)(C)N1 | 15.9 |
| CCOc1ccccc1N1CN(CC)CNC1=S | 6.67 |
| CC1CCN(CCCNC(=O)C2CC(=O)N(C3CCCCCC3)C2)CC1 (stereo not drawn) | 20.3 |
| Cc1cc(OCc2cc(C(=O)N3CCN(CC4CC4)CC3)no2)cc(C)c1Cl | -33.3 |
| O=C(COC(=O)CNC(=O)c1ccc(Cl)c([N+](=O)[O-])c1)NC(=O)CN1CCCC1=O | -3.03 |
| CN(C)CCCN(C(=O)c1ccc2c(c1)CCCC2)c1nc2ccc(Cl)cc2s1.Cl | -43.8 |
